This is an account of results in PMC4775220.

By UniProt entry, the sequences of proteins in these tests, tags left out.
UniProt O75533: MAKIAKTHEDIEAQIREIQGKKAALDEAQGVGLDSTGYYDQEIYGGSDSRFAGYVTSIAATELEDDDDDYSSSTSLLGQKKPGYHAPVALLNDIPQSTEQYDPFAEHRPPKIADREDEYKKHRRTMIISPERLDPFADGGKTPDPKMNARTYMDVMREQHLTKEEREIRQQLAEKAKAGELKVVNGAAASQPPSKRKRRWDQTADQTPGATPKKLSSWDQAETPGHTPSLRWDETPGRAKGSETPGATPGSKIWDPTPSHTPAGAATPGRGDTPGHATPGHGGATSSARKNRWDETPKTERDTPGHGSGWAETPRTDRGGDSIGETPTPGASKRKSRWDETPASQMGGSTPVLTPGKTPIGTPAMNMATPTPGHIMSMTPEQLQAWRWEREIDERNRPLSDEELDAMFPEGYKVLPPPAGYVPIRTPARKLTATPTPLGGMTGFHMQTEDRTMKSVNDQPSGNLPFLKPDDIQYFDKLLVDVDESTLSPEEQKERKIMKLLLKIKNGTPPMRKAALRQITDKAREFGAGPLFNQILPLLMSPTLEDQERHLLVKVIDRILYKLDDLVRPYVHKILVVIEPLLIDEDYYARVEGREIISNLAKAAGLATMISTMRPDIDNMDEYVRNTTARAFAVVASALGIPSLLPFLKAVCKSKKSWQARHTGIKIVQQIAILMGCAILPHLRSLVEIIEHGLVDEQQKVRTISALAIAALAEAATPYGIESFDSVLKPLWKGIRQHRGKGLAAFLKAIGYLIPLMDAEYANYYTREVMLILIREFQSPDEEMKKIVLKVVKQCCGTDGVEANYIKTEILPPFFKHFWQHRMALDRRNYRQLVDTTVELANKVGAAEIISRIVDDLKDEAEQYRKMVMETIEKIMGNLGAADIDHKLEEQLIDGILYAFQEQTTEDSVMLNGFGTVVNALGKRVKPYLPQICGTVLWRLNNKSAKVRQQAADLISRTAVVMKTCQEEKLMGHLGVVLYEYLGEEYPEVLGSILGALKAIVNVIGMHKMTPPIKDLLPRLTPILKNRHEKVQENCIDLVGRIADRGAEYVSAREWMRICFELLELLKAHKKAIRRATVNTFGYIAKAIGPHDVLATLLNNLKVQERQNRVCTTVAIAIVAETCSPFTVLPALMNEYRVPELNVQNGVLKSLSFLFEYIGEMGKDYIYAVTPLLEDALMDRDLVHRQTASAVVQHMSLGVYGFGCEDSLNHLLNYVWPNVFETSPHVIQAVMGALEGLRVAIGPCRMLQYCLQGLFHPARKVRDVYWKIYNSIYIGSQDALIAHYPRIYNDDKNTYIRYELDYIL

These are yes or no findings as the source states them, for the method shown. In cells and extracts the contact can be indirect. Some results given as binding are weak or reduced against the parent protein; the word gives no strength. For part of these data: Sequences can lack the tags named with a protein.

The target of assay [1] is T1, RBM15, endogenous in MEG-01 cells (human (endogenous in MEG-01)) (UniProt Q96T37).
T1 sequence: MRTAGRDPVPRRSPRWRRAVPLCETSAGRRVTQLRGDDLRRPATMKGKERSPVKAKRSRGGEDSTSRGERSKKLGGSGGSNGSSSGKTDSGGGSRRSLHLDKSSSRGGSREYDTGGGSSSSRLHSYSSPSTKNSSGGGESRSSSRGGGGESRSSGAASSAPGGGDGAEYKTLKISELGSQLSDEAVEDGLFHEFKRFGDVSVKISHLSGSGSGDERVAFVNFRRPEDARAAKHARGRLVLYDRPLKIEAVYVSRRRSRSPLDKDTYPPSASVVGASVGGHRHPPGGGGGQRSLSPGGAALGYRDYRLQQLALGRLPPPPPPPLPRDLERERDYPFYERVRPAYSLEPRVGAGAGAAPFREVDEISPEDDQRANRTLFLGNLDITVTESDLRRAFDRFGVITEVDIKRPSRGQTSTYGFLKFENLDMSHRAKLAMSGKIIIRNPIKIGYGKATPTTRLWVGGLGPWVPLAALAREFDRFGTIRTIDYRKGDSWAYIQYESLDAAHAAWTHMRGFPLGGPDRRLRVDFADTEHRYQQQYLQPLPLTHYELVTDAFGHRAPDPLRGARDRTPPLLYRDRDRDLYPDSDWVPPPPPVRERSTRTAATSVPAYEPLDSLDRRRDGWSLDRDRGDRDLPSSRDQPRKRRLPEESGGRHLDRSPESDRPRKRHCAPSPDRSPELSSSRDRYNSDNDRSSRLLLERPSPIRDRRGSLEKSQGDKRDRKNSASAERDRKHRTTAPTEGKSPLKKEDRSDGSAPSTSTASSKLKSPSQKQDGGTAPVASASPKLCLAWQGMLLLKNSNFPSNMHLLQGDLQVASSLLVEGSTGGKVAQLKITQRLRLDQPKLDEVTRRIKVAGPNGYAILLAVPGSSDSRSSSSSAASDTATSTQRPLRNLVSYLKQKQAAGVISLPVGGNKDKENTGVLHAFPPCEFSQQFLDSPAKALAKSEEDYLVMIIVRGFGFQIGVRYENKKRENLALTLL
In words: co-IP; MEG-01 cells expressing inducible shPRMT1; immunoprecipitated with anti-RBM15 antibody, normal mouse serum as negative control; WB for endogenous SF3B1.

The target in assay [2] is T2, RBM15 R578K-Flag, MEG-01 stable cell line (human) (UniProt Q96T37).
T2 sequence: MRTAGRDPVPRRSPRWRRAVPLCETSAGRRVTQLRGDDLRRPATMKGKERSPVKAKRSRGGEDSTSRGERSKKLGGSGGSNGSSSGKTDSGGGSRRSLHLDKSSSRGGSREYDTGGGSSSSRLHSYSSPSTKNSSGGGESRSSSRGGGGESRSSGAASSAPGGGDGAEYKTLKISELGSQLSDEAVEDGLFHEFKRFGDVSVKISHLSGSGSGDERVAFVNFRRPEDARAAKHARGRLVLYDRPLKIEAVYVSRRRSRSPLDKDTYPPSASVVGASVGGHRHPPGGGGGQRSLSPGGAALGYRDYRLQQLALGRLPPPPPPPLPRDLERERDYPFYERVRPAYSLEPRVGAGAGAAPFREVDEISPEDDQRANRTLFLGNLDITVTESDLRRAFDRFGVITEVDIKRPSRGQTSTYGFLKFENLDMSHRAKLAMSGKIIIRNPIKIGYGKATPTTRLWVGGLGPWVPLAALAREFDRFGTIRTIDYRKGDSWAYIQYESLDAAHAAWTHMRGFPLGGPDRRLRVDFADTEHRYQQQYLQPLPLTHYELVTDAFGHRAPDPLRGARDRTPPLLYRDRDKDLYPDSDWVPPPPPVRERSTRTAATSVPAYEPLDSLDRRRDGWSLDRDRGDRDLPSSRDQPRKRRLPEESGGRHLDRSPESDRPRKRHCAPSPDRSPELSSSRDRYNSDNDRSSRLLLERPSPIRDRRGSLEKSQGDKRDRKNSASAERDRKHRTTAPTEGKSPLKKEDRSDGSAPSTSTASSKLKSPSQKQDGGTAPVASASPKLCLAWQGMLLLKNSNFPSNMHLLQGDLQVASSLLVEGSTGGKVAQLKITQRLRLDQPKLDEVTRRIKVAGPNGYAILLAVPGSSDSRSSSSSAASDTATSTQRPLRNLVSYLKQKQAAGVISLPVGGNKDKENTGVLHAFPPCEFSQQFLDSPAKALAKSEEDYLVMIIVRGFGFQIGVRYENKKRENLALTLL
In words: co-IP; MEG-01 stable cell lines expressing RBM15-Flag or RBM15 R578K-Flag, with or without DB75 treatment; immunoprecipitated with anti-Flag antibody; WB for SF3B1.

Assay [3] has as its target T3, RBM15-Flag (wild type), MEG-01 stable cell line (human) (UniProt Q96T37).
T3 sequence: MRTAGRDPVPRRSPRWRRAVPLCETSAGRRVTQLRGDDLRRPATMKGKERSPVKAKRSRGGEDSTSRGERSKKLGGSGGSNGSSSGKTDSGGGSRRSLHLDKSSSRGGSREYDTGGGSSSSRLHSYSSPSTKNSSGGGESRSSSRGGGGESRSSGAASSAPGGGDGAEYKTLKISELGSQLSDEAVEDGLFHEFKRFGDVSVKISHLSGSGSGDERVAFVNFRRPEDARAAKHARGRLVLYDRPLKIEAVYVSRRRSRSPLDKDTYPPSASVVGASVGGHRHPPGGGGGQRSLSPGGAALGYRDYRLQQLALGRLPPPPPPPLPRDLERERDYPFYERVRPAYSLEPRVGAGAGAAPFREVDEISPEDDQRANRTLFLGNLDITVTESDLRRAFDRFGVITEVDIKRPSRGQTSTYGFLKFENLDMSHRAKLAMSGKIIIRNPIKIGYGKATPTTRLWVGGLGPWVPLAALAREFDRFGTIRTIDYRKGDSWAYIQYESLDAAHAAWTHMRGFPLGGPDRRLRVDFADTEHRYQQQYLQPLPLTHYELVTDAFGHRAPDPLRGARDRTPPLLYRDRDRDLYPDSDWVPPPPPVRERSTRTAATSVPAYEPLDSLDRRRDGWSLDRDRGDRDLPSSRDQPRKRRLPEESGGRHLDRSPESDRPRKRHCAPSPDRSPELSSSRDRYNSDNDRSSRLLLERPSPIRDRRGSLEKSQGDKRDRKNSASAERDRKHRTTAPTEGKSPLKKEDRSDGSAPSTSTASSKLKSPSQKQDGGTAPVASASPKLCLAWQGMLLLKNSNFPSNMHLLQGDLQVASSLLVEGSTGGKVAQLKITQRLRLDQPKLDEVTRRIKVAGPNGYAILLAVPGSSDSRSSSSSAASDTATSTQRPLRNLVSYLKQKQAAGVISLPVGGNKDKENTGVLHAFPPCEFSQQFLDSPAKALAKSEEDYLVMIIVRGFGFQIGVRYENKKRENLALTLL
The description is as above.

The target in assay [4] is T4, RBM15 R578K-Flag, expressed in 293T cells (human) (UniProt Q96T37).
T4 sequence: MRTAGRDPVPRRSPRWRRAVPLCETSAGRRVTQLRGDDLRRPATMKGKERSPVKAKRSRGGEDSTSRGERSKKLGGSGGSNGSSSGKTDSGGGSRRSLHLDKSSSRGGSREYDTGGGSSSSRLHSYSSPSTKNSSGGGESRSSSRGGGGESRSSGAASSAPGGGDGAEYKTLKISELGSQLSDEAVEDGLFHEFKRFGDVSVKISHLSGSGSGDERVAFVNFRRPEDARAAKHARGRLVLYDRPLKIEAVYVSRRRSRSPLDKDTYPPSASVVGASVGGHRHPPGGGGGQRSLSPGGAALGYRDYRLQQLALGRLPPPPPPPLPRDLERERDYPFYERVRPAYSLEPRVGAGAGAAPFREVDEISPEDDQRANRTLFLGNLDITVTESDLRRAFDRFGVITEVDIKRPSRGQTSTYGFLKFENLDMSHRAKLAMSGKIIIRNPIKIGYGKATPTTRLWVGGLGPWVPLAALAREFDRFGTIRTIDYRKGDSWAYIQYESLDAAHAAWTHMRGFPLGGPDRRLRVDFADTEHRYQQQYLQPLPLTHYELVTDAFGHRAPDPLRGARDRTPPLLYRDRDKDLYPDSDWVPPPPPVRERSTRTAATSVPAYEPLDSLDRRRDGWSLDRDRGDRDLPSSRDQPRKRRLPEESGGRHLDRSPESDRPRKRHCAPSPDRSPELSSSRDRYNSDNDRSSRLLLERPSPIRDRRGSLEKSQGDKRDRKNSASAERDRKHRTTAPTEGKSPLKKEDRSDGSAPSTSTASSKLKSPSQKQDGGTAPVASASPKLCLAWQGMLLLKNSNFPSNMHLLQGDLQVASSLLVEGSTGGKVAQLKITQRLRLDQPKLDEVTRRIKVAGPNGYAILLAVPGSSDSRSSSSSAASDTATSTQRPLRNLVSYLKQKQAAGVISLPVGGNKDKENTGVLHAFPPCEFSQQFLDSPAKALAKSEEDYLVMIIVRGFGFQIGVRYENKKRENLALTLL
Nature of the assay: co-IP; 293T cells transfected with combinations of RBM15-Flag or R578K-Flag, PRMT1 and HA-CNOT4; RBM15-Flag affinity purified with anti-Flag; lysis buffer 20 mM Hepes pH 7.9, 150 mM NaCl, 1% NP40, with RNaseA 10 ug/ml, 4 C, 4 hr; WB.

For assay [5], the target named is T5, RBM15-Flag (wild type), expressed in 293T cells (human) (UniProt Q96T37).
T5 sequence: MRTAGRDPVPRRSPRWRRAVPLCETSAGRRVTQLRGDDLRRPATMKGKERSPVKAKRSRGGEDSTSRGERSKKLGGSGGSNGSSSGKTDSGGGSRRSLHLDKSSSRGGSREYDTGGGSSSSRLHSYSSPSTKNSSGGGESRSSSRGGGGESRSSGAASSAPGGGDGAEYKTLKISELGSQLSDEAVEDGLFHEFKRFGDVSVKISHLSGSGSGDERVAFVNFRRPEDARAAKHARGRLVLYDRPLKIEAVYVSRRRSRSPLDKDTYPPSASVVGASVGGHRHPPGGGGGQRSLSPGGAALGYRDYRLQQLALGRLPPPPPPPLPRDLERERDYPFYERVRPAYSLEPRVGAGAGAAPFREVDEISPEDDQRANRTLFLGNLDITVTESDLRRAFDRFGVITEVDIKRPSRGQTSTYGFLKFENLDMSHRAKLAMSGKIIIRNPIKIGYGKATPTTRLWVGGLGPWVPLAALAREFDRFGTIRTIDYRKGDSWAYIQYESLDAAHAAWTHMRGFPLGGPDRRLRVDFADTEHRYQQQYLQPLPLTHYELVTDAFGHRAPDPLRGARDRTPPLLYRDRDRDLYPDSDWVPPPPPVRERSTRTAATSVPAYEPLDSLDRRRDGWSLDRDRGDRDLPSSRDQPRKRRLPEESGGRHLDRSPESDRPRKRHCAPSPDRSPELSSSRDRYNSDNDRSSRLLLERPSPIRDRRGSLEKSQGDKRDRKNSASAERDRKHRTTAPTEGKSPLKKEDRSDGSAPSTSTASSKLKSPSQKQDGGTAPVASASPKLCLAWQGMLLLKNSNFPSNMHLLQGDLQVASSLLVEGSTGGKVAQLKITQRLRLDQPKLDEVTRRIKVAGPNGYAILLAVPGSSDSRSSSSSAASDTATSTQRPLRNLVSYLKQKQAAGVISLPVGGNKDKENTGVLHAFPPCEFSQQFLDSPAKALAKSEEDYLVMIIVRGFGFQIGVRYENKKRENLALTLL
The assay is described as above.

Assay [6] has as its target T6, RBM15 peptide dimethylated on R578 (Biotin-LLYRDRDR(ME2A)…) (human).
T6 sequence (peptide, R578 asymmetrically dimethylated (R_(ME2A)); biotin at the N-terminus as printed): LLYRDRDRDLYPDSDWV
In words: pull-down; biotinylated RBM15 peptides (1 uM) on streptavidin beads incubated with MEG-01 whole cell extract overnight at 4 C; washed five times with 300 mM NaCl, 1 mM DTT, 20 mM Tris pH 7.4, 0.1% NP40; WB with anti-CNOT4; only the target purified.

In the case of “SF3B1, endogenous in MEG-01 cells (from UniProt O75533 1-1304)”, the binding result in assay [1], in assay [2] and in assay [3] was “binds” throughout.

B1: HA-tagged CNOT4, expressed in 293T cells (enzyme, UniProt O95628 1-575)
chain: MSRSPDAKEDPVECPLCMEPLEIDDINFFPCTCGYQICRFCWHRIRTDENGLCPACRKPYPEDPAVYKPLSQEELQRIKNEKKQKQNERKQKISENRKHLASVRVVQKNLVFVVGLSQRLADPEVLKRPEYFGKFGKIHKVVINNSTSYAGSQGPSASAYVTYIRSEDALRAIQCVNNVVVDGRTLKASLGTTKYCSYFLKNMQCPKPDCMYLHELGDEAASFTKEEMQAGKHQEYEQKLLQELYKLNPNFLQLSTGSVDKNKNKVTPLQRYDTPIDKPSDSLSIGNGDNSQQISNSDTPSPPPGLSKSNPVIPISSSNHSARSPFEGAVTESQSLFSDNFRHPNPIPSGLPPFPSSPQTSSDWPTAPEPQSLFTSETIPVSSSTDWQAAFGFGSSKQPEDDLGFDPFDVTRKALADLIEKELSVQDQPSLSPTSLQNSSSHTTTAKGPGSGFLHPAAATNANSLNSTFSVLPQRFPQFQQHRAVYNSFSFPGQAARYPWMAFPRNSIMHLNHTANPTSNSNFLDLNLPPQHNTGLGGIPVAGEEEVKVSTMPLSTSSHSLQQGQQPTSLHTTVA
On to B1, for which the binding result in assay [4] is given as “no binding”; in assay [5], “binds”.

B2: CNOT4, endogenous in MEG-01 whole cell extract (enzyme, UniProt O95628 1-575)
chain: MSRSPDAKEDPVECPLCMEPLEIDDINFFPCTCGYQICRFCWHRIRTDENGLCPACRKPYPEDPAVYKPLSQEELQRIKNEKKQKQNERKQKISENRKHLASVRVVQKNLVFVVGLSQRLADPEVLKRPEYFGKFGKIHKVVINNSTSYAGSQGPSASAYVTYIRSEDALRAIQCVNNVVVDGRTLKASLGTTKYCSYFLKNMQCPKPDCMYLHELGDEAASFTKEEMQAGKHQEYEQKLLQELYKLNPNFLQLSTGSVDKNKNKVTPLQRYDTPIDKPSDSLSIGNGDNSQQISNSDTPSPPPGLSKSNPVIPISSSNHSARSPFEGAVTESQSLFSDNFRHPNPIPSGLPPFPSSPQTSSDWPTAPEPQSLFTSETIPVSSSTDWQAAFGFGSSKQPEDDLGFDPFDVTRKALADLIEKELSVQDQPSLSPTSLQNSSSHTTTAKGPGSGFLHPAAATNANSLNSTFSVLPQRFPQFQQHRAVYNSFSFPGQAARYPWMAFPRNSIMHLNHTANPTSNSNFLDLNLPPQHNTGLGGIPVAGEEEVKVSTMPLSTSSHSLQQGQQPTSLHTTVA
B2: in assay [6], the binding result is listed as “binds”.
